Laboratory results: the supplement of paper PMC8728848
The other results are listed elsewhere or left out.

Columns and labels:
Assay in all cases: glycan array binding signal (z-score within array); higher = stronger binding
Conditions in all cases: glycan notation: IUPAC condensed, linker removed
[1] = molecular target: Fuc(a1-2)Gal(b1-4)GlcNAc(b1-2)[Fuc(a1-2)Gal(b1-4)GlcNAc(b1-4)]Man(a1-3)[Fuc(a1-2)Gal(b1-4)GlcNAc(b1-2)Man(a1-6)]Man(b1-4)GlcNAc(b1-4)GlcNAc
How it was run: (§1)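 Columns mapping to the same glycan were averaged after glycan names were converted to IUPAC-condensed notation. The data come from 3228 arrays in the Consortium for Functional Glycomics database, limited to those with an available protein sequence. Binding is reported as a within-array Z-score averaged across arrays of one protein sequence and across linkers.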

[2] = molecular target: Fuc(a1-2)Gal(b1-4)GlcNAc(b1-3)Gal(b1-4)GlcNAc
How it was run: as §1

[3] = molecular target: Fuc(a1-2)Gal(b1-4)GlcNAc(b1-3)Gal(b1-4)GlcNAc(b1-2)Man(a1-3)[Fuc(a1-2)Gal(b1-4)GlcNAc(b1-3)Gal(b1-4)GlcNAc(b1-2)Man(a1-6)]Man(b1-4)GlcNAc(b1-4)GlcNAc
How it was run: as §1

[4] = molecular target: Fuc(a1-2)Gal(b1-4)GlcNAc(b1-3)Gal(b1-4)GlcNAc(b1-3)Gal(b1-4)GlcNAc
How it was run: as §1

[5] = molecular target: Fuc(a1-2)Gal(b1-4)GlcNAc(b1-3)GalNAc
How it was run: as §1

[6] = molecular target: Fuc(a1-2)Gal(b1-4)GlcNAc(b1-3)[Fuc(a1-2)Gal(b1-4)GlcNAc(b1-6)]GalNAc
How it was run: as §1

[7] = molecular target: Fuc(a1-2)Gal(b1-4)GlcNAc(b1-3)[Fuc(a1-3)[Gal(b1-4)]GlcNAc(b1-6)]Gal(b1-4)Glc
How it was run: as §1

[8] = molecular target: Fuc(a1-2)Gal(b1-4)GlcNAc(b1-6)GalNAc
How it was run: as §1

[9] = molecular target: Fuc(a1-2)Gal(b1-4)GlcNAc6S
How it was run: as §1

[10] = molecular target: Fuc(a1-2)Gal(b1-4)[Fuc(a1-3)]GlcNAc
How it was run: as §1

[11] = molecular target: Fuc(a1-2)Gal(b1-4)[Fuc(a1-3)]GlcNAc(b1-2)Man(a1-3)[Fuc(a1-2)Gal(b1-4)[Fuc(a1-3)]GlcNAc(b1-2)Man(a1-6)]Man(b1-4)GlcNAc(b1-4)GlcNAc
How it was run: as §1

[12] = molecular target: Fuc(a1-2)Gal(b1-4)[Fuc(a1-3)]GlcNAc(b1-2)Man(a1-3)[Fuc(a1-2)Gal(b1-4)[Fuc(a1-3)]GlcNAc(b1-2)Man(a1-6)]Man(b1-4)GlcNAc(b1-4)[Fuc(a1-6)]GlcNAc
How it was run: as §1

[13] = molecular target: Fuc(a1-2)Gal(b1-4)[Fuc(a1-3)]GlcNAc(b1-2)[Fuc(a1-2)Gal(b1-4)[Fuc(a1-3)]GlcNAc(b1-4)]Man(a1-3)[Fuc(a1-2)Gal(b1-4)[Fuc(a1-3)]GlcNAc(b1-2)Man(a1-6)]Man(b1-4)GlcNAc(b1-4)GlcNAc
How it was run: as §1

[14] = molecular target: Fuc(a1-2)Gal(b1-4)[Fuc(a1-3)]GlcNAc(b1-3)Gal(b1-4)[Fuc(a1-3)]GlcNAc
How it was run: as §1

[15] = molecular target: Fuc(a1-2)Gal(b1-4)[Fuc(a1-3)]GlcNAc(b1-3)Gal(b1-4)[Fuc(a1-3)]GlcNAc(b1-3)Gal(b1-4)[Fuc(a1-3)]GlcNAc
How it was run: as §1

[16] = molecular target: Fuc(a1-2)Gal(b1-4)[Fuc(a1-3)]GlcNAc(b1-3)GalNAc
How it was run: as §1

[17] = molecular target: Fuc(a1-2)Gal(b1-4)[Fuc(a1-3)]GlcNAc(b1-3)[Neu5Ac(a2-6)Gal(b1-4)GlcNAc(b1-6)]Gal(b1-4)Glc
How it was run: as §1

[18] = molecular target: Fuc(a1-2)Gal3S(b1-4)GlcNAc
How it was run: as §1

[19] = molecular target: Fuc(a1-2)Gal6S(b1-3)GlcNAc
How it was run: as §1

[20] = molecular target: Fuc(a1-2)Gal6S(b1-3)GlcNAc6S
How it was run: as §1

Fuc(a1-2)Gal6S(b1-4)Glc = molecular target: Fuc(a1-2)Gal6S(b1-4)Glc
How it was run: as §1

[21] = molecular target: Fuc(a1-2)Gal6S(b1-4)Glc6S
How it was run: as §1

[22] = molecular target: Fuc(a1-2)Gal6S(b1-4)GlcNAc
How it was run: as §1

Fuc(a1-2)[Gal(a1-3)]Gal = molecular target: Fuc(a1-2)[Gal(a1-3)]Gal
How it was run: as §1

[23] = molecular target: Fuc(a1-2)[Gal(a1-3)]Gal(b1-3)GalNAc
How it was run: as §1

[24] = molecular target: Fuc(a1-2)[Gal(a1-3)]Gal(b1-3)GalNAc(b1-3)Gal(a1-4)Gal(b1-4)Glc
How it was run: as §1

[25] = molecular target: Fuc(a1-2)[Gal(a1-3)]Gal(b1-3)GlcNAc
How it was run: as §1

[26] = molecular target: Fuc(a1-2)[Gal(a1-3)]Gal(b1-3)GlcNAc(b1-2)Man(a1-3)[Fuc(a1-2)[Gal(a1-3)]Gal(b1-3)GlcNAc(b1-2)Man(a1-6)]Man(b1-4)GlcNAc(b1-4)GlcNAc
How it was run: as §1

[27] = molecular target: Fuc(a1-2)[Gal(a1-3)]Gal(b1-3)GlcNAc(b1-2)Man(a1-3)[Fuc(a1-2)[Gal(a1-3)]Gal(b1-3)GlcNAc(b1-2)Man(a1-6)]Man(b1-4)GlcNAc(b1-4)[Fuc(a1-6)]GlcNAc
How it was run: as §1

[28] = molecular target: Fuc(a1-2)[Gal(a1-3)]Gal(b1-3)GlcNAc(b1-3)GalNAc
How it was run: as §1

B1: PA-IL (Pseudomonas aeruginosa), Q05097 (protein)
chain: MAWKGEVLANNEAGQVTSIIYNPGDVITIVAAGWASYGPTQKWGPQGDREHPDQGLICHDAFCGALVMKIGNSGTIPVNTGLFRWVAPNNVQGAITLIYNDVPGTYGNNSGSFSVNIGKDQS
- glycan array binding signal (z-score) [1]: -0.197
- glycan array binding signal (z-score) [2]: -0.231
- glycan array binding signal (z-score) [3]: -0.217
- glycan array binding signal (z-score) [4]: -0.223
- glycan array binding signal (z-score) [5]: -0.216
- glycan array binding signal (z-score) [6]: -0.208
- glycan array binding signal (z-score) [7]: -0.243
- glycan array binding signal (z-score) [8]: -0.201
- glycan array binding signal (z-score) [9]: -0.226
- glycan array binding signal (z-score) [10]: -0.23
- glycan array binding signal (z-score) [11]: -0.221
- glycan array binding signal (z-score) [12]: -0.206
- glycan array binding signal (z-score) [13]: -0.185
- glycan array binding signal (z-score) [14]: -0.206
- glycan array binding signal (z-score) [15]: -0.213
- glycan array binding signal (z-score) [16]: -0.192
- glycan array binding signal (z-score) [17]: -0.236
- glycan array binding signal (z-score) [18]: -0.217
- glycan array binding signal (z-score) [19]: -0.225
- glycan array binding signal (z-score) [20]: -0.184
- glycan array binding signal (z-score) (Fuc(a1-2)Gal6S(b1-4)Glc): -0.229
- glycan array binding signal (z-score) [21]: -0.226
- glycan array binding signal (z-score) [22]: -0.222
- glycan array binding signal (z-score) (Fuc(a1-2)[Gal(a1-3)]Gal): 0.664
- glycan array binding signal (z-score) [23]: 0.269
- glycan array binding signal (z-score) [24]: -0.186
- glycan array binding signal (z-score) [25]: 0.039
- glycan array binding signal (z-score) [26]: 0.564
- glycan array binding signal (z-score) [27]: -0.189
- glycan array binding signal (z-score) [28]: -0.21
